Assay results reported in PubChem BioAssay AID493208 (National Center for Advancing Translational Sciences (NCATS), 2011).
Screen size: about 44,000 compounds; about 340 (0.77%) were called active. About 5% were inconclusive and are not listed. Calls come from the whole dose curve; as a rule, active = well fitted inhibition curve with a large enough effect; inconclusive = small, poorly fitted or top-dose-only effect; inactive = flat fitted curve, though single readings scatter. This is one part of the list.

Experiment: Acumen qHTS Assay for Inhibitors of the mTORC1 Signaling Pathway in MEF (Tsc2-/-, p53-/-) Cells: Sytravon;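 note: plate controls were DMSO for no effect and rapamycin for full effect; nearly all actives have a fitted effect of over 50% in size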
Settings: phospho-rpS6 immunofluorescence/PI, 24 h; series mostly up to 38.3 µM; activity change, negative = inhibition: at the top concentration
Summary of the method: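 Immunofluorescence of rpS6 phosphorylation in Tsc2-/-, p53-/- MEFs after 24 h compound exposure, normalized to propidium iodide signal. Activity is expressed as % positive cells, thresholded with 7.5 nM rapamycin.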

| Structure (SMILES) | activity change, negative = inhibition |
| --- | --- |
| CCN(Cc1ccccc1)C(=O)Cn1c(=O)n(-c2ccc(Cl)c(Cl)c2)c(=O)c2c(C)c(C(=O)N(C)C)sc21 | inactive: -6.18% |
| COc1ccc(CCNC(=O)c2cc(=O)c3ccc(C)cc3o2)cc1OC | inactive: -8.77% |
| CCCCCn1c(=O)[nH]c2cc(C(=O)NC(C)CC)ccc2c1=O (configuration not stated) | inactive: 0.279% |
| COCCn1c(=O)[nH]c2cc(C(=O)Nc3ccc(OC)cc3)ccc2c1=O | inactive: -0.645% |
| COc1ccc(C(=O)Nc2ccc3oc(-c4cccnc4)nc3c2)cc1OC | inactive: 5.56% |
| CCOc1ccc(CNC(=O)c2ccc3c(c2)nc2n3CCCCC2)cc1 | inactive: 5.58% |
| Cc1ccc2c(c1)cc(C(=O)NCc1ccccc1C)n2C | inactive: 1.53% |
| CCc1cnc2c(c1SCC(=O)Nc1ccc(C(=O)OC)cc1)c(=O)n(C)c(=O)n2C | inactive: 0.363% |
| CC(C)Oc1ccc(CNC(=O)C2CCN(Cc3cc4ccccc4n3Cc3ccccc3)CC2)cc1 | inactive: -6.6% |
| CC(C)(C)c1ccc(OCCOCCn2c(-c3ccc(Cl)cc3)nc3ccccc3c2=O)cc1 | inactive: -0.0361% |
| CCn1c2ccccc2c2cc(NC(=O)COc3cc(C)ccc3C)ccc21 | inactive: 7.42% |
| Cc1cccc(Cn2c(COc3ccccc3)nc3ccccc32)c1 | inactive: -18.4% |
| O=C(/C=C/c1ccccc1)Nc1nc2n(n1)C(c1ccc(F)cc1)C=C(c1ccccc1)N2 (configuration not stated) | inactive: -2.41% |
| CC(C)Oc1ccc(CNC(=O)c2ccc(NC(=O)N3CC(C)Sc4ccccc43)cc2)cc1 (configuration not stated) | inactive: -6.34% |
| CC1CCc2onc(C(=O)N3CCN(c4cccc(Cl)c4)CC3)c2C1 (configuration not stated) | inactive: 5.14% |
| CCOC(=O)CNC(=O)c1cc2c(=O)n3cccc(C)c3nc2n1C | inactive: -16.3% |
| CCc1nn2c(=O)c(S(=O)(=O)Nc3ccc(C)c(C)c3)c(C)nc2s1 | inactive: 3.64% |
| CCc1cccc(C)c1NC(=O)c1cnn(-c2ccc(OC)cc2)c1C1CCN(C(=O)OC(C)(C)C)CC1 | inactive: -6.04% |
| COc1ccc(NC(=O)c2nc(-c3ccc(C)cc3)n3c2CCCCC3)c(OC)c1 | inactive: 9.45% |
| CCOCCc1nn2c(=O)cc(COC(=O)c3ccc(NC(=O)C(C)(C)C)cc3)nc2s1 | inactive: 3.98% |
| Cc1cc2oc(C(=O)N(Cc3ccco3)Cc3ccccc3Cl)c(C)c2cc1C | inactive: -5.69% |
| CCOC(=O)c1ccccc1NC(=O)c1cnc(N2CCOCC2)c2ccccc12 | inactive: -2.59% |
| Cc1ccc(SCC(=O)Nc2ccc3oc(-c4ccccc4F)nc3c2)cc1 | inactive: -2.59% |
| COc1ccc(N2CC(NC(=O)/C=C\c3ccccc3)CC2=O)cc1OC (configuration not stated) | inactive: 0.749% |
| Cc1nn(C)c(C)c1CCNC(=O)Nc1ccccc1C(F)(F)F | inactive: 0% |
| CCN(CC)c1nn2c(=O)c(C(=O)NCc3ccc(N(C)C)cc3)cnc2s1 | inactive: 0% |
| COc1ccc(CNC(=O)Cn2c(-c3ccccc3)cc(C(C)=O)c2C)cc1OC | inactive: 0.468% |
